Test results published in PubChem BioAssay AID485294 (National Center for Advancing Translational Sciences (NCATS), 2010).
Among all 370,000 compounds or so, about 150 (0.041%) were called active. Inconclusive means that the source gave no clear call. Such entries were picked first, then a sample of the others. Calls come from the whole dose curve; as a rule, active = well fitted inhibition curve with a large enough effect; inconclusive = small, poorly fitted or top-dose-only effect; inactive = flat fitted curve, though single readings scatter. Potencies of inconclusive entries are left out as doubtful fits.

Biological target: Beta-lactamase (Escherichia coli (strain K12)) (UniProt P00811)
Sequence of UniProt P00811 (P00811 whole entry, looked up): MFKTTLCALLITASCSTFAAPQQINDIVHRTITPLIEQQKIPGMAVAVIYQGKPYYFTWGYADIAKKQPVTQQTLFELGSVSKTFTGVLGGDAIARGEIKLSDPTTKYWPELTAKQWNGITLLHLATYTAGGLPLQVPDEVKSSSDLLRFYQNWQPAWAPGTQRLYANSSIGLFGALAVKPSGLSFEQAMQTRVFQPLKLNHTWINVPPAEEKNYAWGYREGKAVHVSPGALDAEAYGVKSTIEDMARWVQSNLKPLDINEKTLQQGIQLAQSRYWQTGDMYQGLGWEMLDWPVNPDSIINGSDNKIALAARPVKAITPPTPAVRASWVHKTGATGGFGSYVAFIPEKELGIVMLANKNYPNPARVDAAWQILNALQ
Assay: qHTS Inhibitors of AmpC Beta-Lactamase (assay with detergent); note: nearly all actives have a fitted effect of over 25% in size
Settings: AmpC hydrolysis of nitrocefin, absorbance 480 nm, 0.01% Triton; series mostly up to 114 µM
Procedure, shortened: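 20 mM phosphate pH 7.0 + 0.01% (detergent screen) or 0.0001% Triton X-100; 5.3 nM AmpC reagent; cpd preinc 15 min RT; nitrocefin (800 uM stock) to start; A480 q20 s × 4 min; Activity was normalised to no-enzyme and no-compound control wells.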
Potency is the fitted concentration of half-maximal effect; tags give direction and shape of the fitted curve.

Row | SMILES | Potency
1 | CC(C)Cn1c(N)c(C(=O)COC(=O)c2cc(-c3ccco3)nc3ccccc23)c(=O)n(C)c1=O | inactive
2 | NC(=S)Cc1nc2n(n1)Cc1ccccc1-2 | inconclusive [inhibitor, single point]
3 | Cc1ccccc1C(=O)NC1CCN(Cc2nnnn2Cc2ccc(F)cc2)CC1 | inconclusive [inhibitor, partial curve, poor fit]
4 | Cc1cc(C)n(-c2cc(N3CCN(S(=O)(=O)c4ccc(Cl)cc4)CC3)ccc2[N+](=O)[O-])n1 | inconclusive [inhibitor, partial curve]
5 | Cc1cccc(N2CCCn3c2nc2c3c(=O)n(CC(=O)OCc3ccccc3)c(=O)n2C)c1 | inconclusive [inhibitor, full curve, poor fit]
6 | COC(=O)c1ccc(CN2CCC(n3nccc3NC(=O)C3CC3)CC2)cc1 | inconclusive [inhibitor, full curve, poor fit]
7 | CC(NC(=O)CCCc1c[nH]c2ccccc12)c1ccc(F)cc1 (stereo not given) | inconclusive [inhibitor, full curve, poor fit]
8 | Oc1c(-c2cc(-c3ccco3)[nH]n2)ccc2ccccc12 | inconclusive [inhibitor, full curve, poor fit]
9 | COCCCNC(=O)C(=O)NC1CCCCC1C (stereo not given) | inactive
10 | COc1cccc(N/C(N)=N/c2nc(C(F)(F)F)cc(=O)[nH]2)c1 | inconclusive [inhibitor, partial curve, poor fit]
11 | O=S(=O)(c1ccccc1)N1CCN(C(=S)NCCc2ccccc2)CC1 | inactive
12 | Clc1ccccc1CN1CCN(c2ncccn2)CC1 | inconclusive [inhibitor, full curve, poor fit]
13 | CCCc1nnc(SCC(=O)N2CCCC2)n1CC1CCCO1 (stereo not given) | inconclusive [inhibitor, full curve, poor fit]
14 | Cc1ccc(C)c(S(=O)(=O)N2CCN(C(C)C(=O)Nc3ccccc3-c3ccccc3)CC2)c1 (stereo not given) | inconclusive [inhibitor, full curve]
15 | O=C(c1ccc(CN2CCc3ccccc3C2)cc1)N1CCc2ccccc2C1 | inconclusive [inhibitor, full curve, poor fit]
16 | COc1ccc(/C=C/c2c(-c3ccc(OC)cc3)oc3ccc(-c4ccc(OC)cc4)cc23)cc1 | inconclusive [inhibitor, partial curve, poor fit]
17 | Cc1cc(Br)c(NC(=O)Cn2c([N+](=O)[O-])cnc2C)cc1C | inconclusive [inhibitor, partial curve, poor fit]
18 | CC(C)(C)c1cc(C2=CSC3=NCCN23)cc(C(C)(C)C)c1O | inconclusive [inhibitor, partial curve, poor fit]
19 | O=C(CNc1cccc(S(=O)(=O)N2CCCC2)c1)Nc1ccc(C(F)(F)F)cc1 | inactive
20 | CCc1cc2c(nc1CC)CCN(CC/C(C)=N/OC[C@H]1O[C@H](c3ccccc3)C=C[C@@H]1Oc1ccc(OC)cc1)C2 | inconclusive [inhibitor, partial curve, poor fit]
21 | Cc1ccc(S(=O)(=O)N2CCC(=O)N(C(COCc3ccc(Cl)cc3Cl)Cc3ccccc3)CC2)cc1 (stereo not given) | inactive
22 | Cc1cccc(N2CCN(C(=O)c3cc4c(=O)oc5ccccc5c4s3)CC2)c1C | inactive

Row | SMILES | Potency
23 | CC1CN(C(=S)NC2CCCC2)CC(C)O1 (stereo not given) | inconclusive [inhibitor, full curve]
24 | CCOC(=O)C1=CC[C@@H](c2ccco2)N(S(=O)(=O)c2ccc(C)cc2)[C@H]1C(=O)OCC | inactive
25 | O=C(NC1CCCCC1)N(Cc1cc2cc3c(cc2[nH]c1=O)OCCO3)CC1CCCO1 (stereo not given) | inconclusive [inhibitor, full curve, poor fit]
26 | CC(=O)Nc1ccc(/C=N/NC(=O)CNS(=O)(=O)c2ccccc2)cc1 | inconclusive [inhibitor, full curve, poor fit]
27 | CCCNC(=O)N1CCC(C(=O)c2ccc(Cl)cc2)CC1 | inconclusive [inhibitor, partial curve]
28 | O=C(NCC(NS(=O)(=O)OCC(Cl)(Cl)Cl)c1ccccc1)C(F)(F)F (stereo not given) | inconclusive [inhibitor, full curve, poor fit]
29 | CCOc1ccc(CSC2=NCCN2)cc1[N+](=O)[O-] | inactive
30 | CCCCn1c(=O)c(C(=O)Nc2nc3ccccc3[nH]2)c(O)c2ccccc21 | inconclusive [inhibitor, partial curve, poor fit]
31 | CC(C)OC(=O)c1cccc(NC(=O)c2ccccc2)c1 | inconclusive [inhibitor, full curve]
32 | O=C(NCCCn1ccnc1)C(Cc1ccc([N+](=O)[O-])cc1)N1C(=O)c2ccccc2C1=O (stereo not given) | inconclusive [inhibitor, full curve, poor fit]
33 | COc1cccc(C2C3=C(CC(C)(C)CC3=O)Nc3cc4c(cc32)OCO4)c1 (stereo not given) | inconclusive [inhibitor, full curve]
34 | COc1ccc(-c2cc(C(=O)OCC(=O)NC(C)(C)C)c3ccccc3n2)cc1 | inconclusive [inhibitor, single point]
35 | COC(=O)c1ccccc1NC(=O)c1c(O)c2c([nH]c1=O)CCCC2 | inactive
36 | CC(C)(C)c1ccc(OCC(O)CN(CCO)CC(O)Cn2ccc3ccccc32)cc1 (stereo not given) | inconclusive [inhibitor, partial curve]
37 | CCOC(=O)c1ccccc1OCc1cc(/C=N/n2cncn2)ccc1OC | inconclusive [inhibitor, full curve]
38 | COc1ccc(CC(=O)Nc2ccc(S(=O)(=O)NC(C)C)cc2)cc1 | inconclusive [inhibitor, single point]
39 | CCC1CC2CC(NC(C)=O)C1C2 (stereo not given) | inconclusive [inhibitor, full curve, poor fit]
40 | Cc1cc(OC(=O)N(C)C)nc(-c2ccc(C)c(Cl)c2)n1 | inconclusive [inhibitor, full curve, poor fit]
41 | Cc1nn(C(=O)c2c(F)cccc2F)c(C)c1S(=O)(=O)N1CCOCC1 | inactive
42 | COC(=O)CCC(=O)COc1ccccc1C#N | inactive
43 | COc1ccc(CN(C)C(=O)c2cccc(S(=O)(=O)N3CCN(c4ccccc4)CC3)c2)c(OC)c1OC | inconclusive [inhibitor, partial curve, poor fit]
44 | CC12CC3CC(C)(C1)CC(Nc1nc(N4CCOCC4)nc4ccccc14)(C3)C2 | inactive

Row | SMILES | Potency
45 | Cc1nc(C)c2c(c1C(F)(F)F)-c1ccccc1C2(F)F | inconclusive [inhibitor, full curve, poor fit]
46 | Cc1cccc(OP(=O)(Oc2ccccc2)OC(c2ccccc2)C(F)(F)F)c1 (stereo not given) | inconclusive [inhibitor, full curve, poor fit]
47 | CN(C)Cc1c(C(=O)Nc2ccccc2)[nH]c2ccccc12 | inconclusive [inhibitor, single point]
48 | COc1cc(NC(=O)CN(C)S(=O)(=O)c2ccc(C)cc2)cc(OC)c1 | inconclusive [inhibitor, single point]
49 | COc1ccc(NC(=O)Nc2ccc(F)c(F)c2)c(OC)c1 | inactive
50 | COc1cccc(CNC(=O)C23CN(Cc4ccccc4)CC2C(c2ccc([N+](=O)[O-])cc2)=NO3)c1 (stereo not given) | inconclusive [inhibitor, full curve, poor fit]
51 | COc1ccc(C(=O)NC(NC(=O)c2ccc(OC)c(OC)c2)c2ccccc2F)cc1OC | inconclusive [inhibitor, partial curve, poor fit]
52 | O=C(CSc1nc(-c2ccc(F)cc2)[nH]c1-c1ccccc1)NCC1CCCO1 (stereo not given) | inactive
53 | CCCOc1ccc(C(=O)NC(=S)Nc2nc3ccccc3s2)cc1 | inconclusive [inhibitor, full curve]
54 | O=C(O)CCCNC(=O)/C(=C\C=C\c1ccccc1)NC(=O)c1ccccc1Cl | inactive
55 | Cc1ccc(C(=O)NCc2occc2C(=O)O)o1 | inconclusive [inhibitor, full curve, poor fit]
56 | O=C(NCCc1ccccc1)c1c(F)c(F)c(F)c(F)c1F | inactive
57 | CN(C)C(=O)C(NC(=O)c1ccccc1)=C(Cl)Cl | inconclusive [inhibitor, full curve, poor fit]
58 | CCOCCCN(C(=O)Cn1nnc(-c2ccc(C)o2)n1)C(C(=O)NC1CCCC1)c1ccco1 (stereo not given) | inconclusive [inhibitor, full curve, poor fit]
59 | Cn1c(-c2ccc3c(c2)OCO3)cnc1NCc1ccc(Cl)cc1 | inconclusive [inhibitor, full curve, poor fit]
60 | COc1cccc2c(=O)cc(C)n(CC(=O)Nc3cccc(C)c3)c12 | inactive
61 | C(=N\n1cnnc1SCc1ccccc1)/c1ccco1 | inconclusive [inhibitor, full curve]
62 | Cc1cccc(NC(=O)CCOc2ccccc2)c1C | inactive
63 | COc1ccc2nc(SCC(N)=O)cc(C)c2c1 | inconclusive [inhibitor, full curve, poor fit]
64 | CC(=O)NC(C)C(=O)OCC(=O)c1ccc(-c2ccccc2)cc1 (stereo not given) | inconclusive [inhibitor, partial curve]
65 | Cc1oc(/N=C/c2ccccc2)c(C#N)c1C | inconclusive [inhibitor, partial curve, poor fit]
